Laboratory results as given in the supplement of paper PMC4466236.
Whole data set: some 33,000 sequences, median “E-score (dimensionless, -0.5 to 0.5)” near -0.058, cut for the highest 2% near 0.35. Some of the results follow.

Test system: MvaT
Test: PBM 8-mer E-score (mean of HK and ME arrays) (E-score (dimensionless, -0.5 to 0.5)); higher = stronger relative binding preference; most listed sequences are background and not binding sites
How it was run: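 Full-length P. aeruginosa MvaT, with glutathione S-transferase fused to its N-terminus (cloned into pTH6838 by isothermal assembly), was tested by protein binding microarray using a previously described protocol. Two universal double-stranded 60-mer arrays (ME and HK) were used, each with a constant 25-mer primer region and a variable 35-mer region covering all 8-mers. The rank-based 8-mer E-score (-0.5 to 0.5) is the mean of the two arrays, parsed with a custom Python script.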

Going from ATCTGGAA to CCGTACAC, the “PBM 8-mer E-score” value falls from -0.0325 to -0.121.

Going from CAAGGGGG to GCCACGCA, the “PBM 8-mer E-score” value rises from -0.275 to -0.169.

Going from AAGTGTGA to AGTGCACT, the “PBM 8-mer E-score” value rises from 0.154 to 0.18.

First: CAGGTTGC
Second: CCGGCTAG
The “PBM 8-mer E-score” value of the first is lower: -0.171 for the first, -0.138 for the second.

First: GGCCACCC
Second: GGGAGAAA
The “PBM 8-mer E-score” value of the first is lower: -0.29 for the first, -0.174 for the second.

Going from GTGTATTA to GACCTATA, the “PBM 8-mer E-score” value falls from 0.276 to 0.04.

First: ACTGAACT
Second: AGGCTGCA
The “PBM 8-mer E-score” value of the first is higher: 0.161 for the first, -0.0853 for the second.

Going from AGCGGCCG to CGGCTTCC, the “PBM 8-mer E-score” value falls from -0.221 to -0.242.

First: AACCCTCA
Second: GCGCTAGC
The “PBM 8-mer E-score” value of the first is higher: -0.038 for the first, -0.217 for the second.

First: CGCAGCCC
Second: GGACAGCC
The “PBM 8-mer E-score” value of the first is lower: -0.334 for the first, -0.309 for the second.

Compared with GGCCGACA, ATCTGGAG is lower in “PBM 8-mer E-score” value: -0.0912 for the first, -0.122 for the second.

First: TAGGTTGA
Second: CCGTGTGC
The “PBM 8-mer E-score” value of the first is higher: 0.0349 for the first, -0.295 for the second.

Compared with GCAAGACC, CCTTCGGC is lower in “PBM 8-mer E-score” value: -0.207 for the first, -0.319 for the second.

Going from CACATTGG to ATCAATCA, the “PBM 8-mer E-score” value rises from -0.103 to 0.102.

Compared with CGGCTGAA, AAATCACT is higher in “PBM 8-mer E-score” value: -0.0544 for the first, -0.0197 for the second.

Going from CTGTCTCC to ACGCTCCT, the “PBM 8-mer E-score” value falls from -0.0733 to -0.144.

Going from TACAGGTA to CATCGCGG, the “PBM 8-mer E-score” value falls from 0.14 to -0.0305.

Going from ATGCCATG to TGCTGAAA, the “PBM 8-mer E-score” value rises from -0.224 to 0.105.

Compared with AGCGCATC, CGAGACGA is lower in “PBM 8-mer E-score” value: -0.0922 for the first, -0.293 for the second.

Compared with GGCGCCCC, ATTAGGCA is higher in “PBM 8-mer E-score” value: -0.303 for the first, 0.117 for the second.

Compared with AGGAATAT, AAACCGGC is lower in “PBM 8-mer E-score” value: 0.298 for the first, -0.0505 for the second.

First: CCTATCAC
Second: GCTTGCAC
The “PBM 8-mer E-score” value of the first is lower: -0.185 for the first, -0.171 for the second.

First: GGCGTCAC
Second: GGGCCCTA
The “PBM 8-mer E-score” value of the first is lower: -0.247 for the first, -0.218 for the second.

Going from AACGAAAC to AAACTTTG, the “PBM 8-mer E-score” value rises from 0.234 to 0.317.

First: GCTCCAAC
Second: GTAACCTA
The “PBM 8-mer E-score” value of the first is lower: -0.245 for the first, 0.0624 for the second.

Compared with AACATCTC, CTGAGCCA is lower in “PBM 8-mer E-score” value: 0.0471 for the first, -0.258 for the second.

Going from TGAAAGCA to ACGATCAG, the “PBM 8-mer E-score” value falls from -0.0371 to -0.152.

Going from GCCATAAC to AAGCGCAC, the “PBM 8-mer E-score” value falls from -0.0968 to -0.147.

Compared with CAGGCGCC, GAGCACTC is higher in “PBM 8-mer E-score” value: -0.314 for the first, -0.181 for the second.

Compared with GGACACCA, CTTGATAC is higher in “PBM 8-mer E-score” value: -0.0615 for the first, 0.0432 for the second.

First: ACGAGCTA
Second: GAAATCCC
The “PBM 8-mer E-score” value of the first is lower: -0.128 for the first, -0.0341 for the second.

Going from GGTCTGGA to ATGTTAAG, the “PBM 8-mer E-score” value rises from -0.13 to 0.178.

Compared with TACTCATA, AGGATTAC is lower in “PBM 8-mer E-score” value: 0.153 for the first, -0.143 for the second.

First: ATCGCCAC
Second: CTTCCACA
The “PBM 8-mer E-score” value of the first is lower: 0.0178 for the first, 0.0827 for the second.

Going from CCTAAAAC to AGTCAAAC, the “PBM 8-mer E-score” value rises from -0.0237 to 0.153.

Going from GCAAACAA to ATCTTTGC, the “PBM 8-mer E-score” value falls from 0.0823 to 0.0261.

Compared with ACGTTTAA, CTCGTTAA is lower in “PBM 8-mer E-score” value: 0.195 for the first, 0.0773 for the second.

First: AATTCGGA
Second: CAACGTTG
The “PBM 8-mer E-score” value of the first is higher: 0.0801 for the first, 0.0711 for the second.

Going from GGCGTCCA to CGGATCAG, the “PBM 8-mer E-score” value falls from -0.193 to -0.207.

First: GATAAACA
Second: ACATAGGG
The “PBM 8-mer E-score” value of the first is higher: 0.278 for the first, 0.054 for the second.

First: GCTTTACA
Second: GGCAACTA
The “PBM 8-mer E-score” value of the first is higher: 0.112 for the first, 0.0618 for the second.

Compared with ACGGGTAT, CAACATCG is lower in “PBM 8-mer E-score” value: 0.158 for the first, 0.0671 for the second.

Compared with CAACCAGA, AGCCTTGG is lower in “PBM 8-mer E-score” value: -0.0974 for the first, -0.159 for the second.

First: CCCAGAAG
Second: AAGTGTCC
The “PBM 8-mer E-score” value of the first is lower: -0.183 for the first, 0.042 for the second.

First: AGAATACT
Second: AACTAGTA
The “PBM 8-mer E-score” value of the first is lower: 0.126 for the first, 0.303 for the second.

Going from CCCATTGA to GCCATCAC, the “PBM 8-mer E-score” value rises from -0.17 to -0.0948.

Compared with ATGTATGA, GCACTCTA is lower in “PBM 8-mer E-score” value: 0.159 for the first, -0.000778 for the second.

First: CAACTAAA
Second: AACGAGTT
The “PBM 8-mer E-score” value of the first is higher: 0.205 for the first, 0.162 for the second.

First: CAAGTAAC
Second: CGAGGCTA
The “PBM 8-mer E-score” value of the first is higher: 0.265 for the first, -0.0952 for the second.

Going from ATAGGGCA to CCATACCG, the “PBM 8-mer E-score” value falls from -0.0415 to -0.195.

Going from AACAGCAT to GCATGACC, the “PBM 8-mer E-score” value falls from 0.122 to -0.198.

Going from GACCGTCA to AGTTAACA, the “PBM 8-mer E-score” value rises from -0.261 to 0.348.

Compared with GTAAACAC, CACTTTCA is higher in “PBM 8-mer E-score” value: 0.0546 for the first, 0.136 for the second.

First: TATGAATA
Second: AGTACCTA
The “PBM 8-mer E-score” value of the first is higher: 0.232 for the first, 0.0753 for the second.

Going from AGCGAACT to GACATATC, the “PBM 8-mer E-score” value rises from -0.104 to 0.113.

Going from CAGAACAA to CCTCGAGC, the “PBM 8-mer E-score” value falls from -0.0753 to -0.149.

Compared with AGCCAACG, ACGGGATA is higher in “PBM 8-mer E-score” value: -0.346 for the first, 0.0845 for the second.

First: ATAAGGTC
Second: AGTACTTA
The “PBM 8-mer E-score” value of the first is lower: 0.118 for the first, 0.292 for the second.

Going from CCCAGGAG to CCAGGGCA, the “PBM 8-mer E-score” value falls from -0.259 to -0.264.

Compared with ACCACTAC, GTGCTAAA is higher in “PBM 8-mer E-score” value: -0.0572 for the first, 0.133 for the second.

First: CATAGCCG
Second: CCCTCGAA
The “PBM 8-mer E-score” value of the first is lower: -0.254 for the first, -0.157 for the second.

Compared with GCAACTTA, GCTCCGCA is lower in “PBM 8-mer E-score” value: 0.262 for the first, -0.267 for the second.

First: ATGCATTC
Second: AATGACCA
The “PBM 8-mer E-score” value of the first is higher: 0.109 for the first, 0.0582 for the second.

First: AGTTCGAC
Second: CGTGCACA
The “PBM 8-mer E-score” value of the first is higher: 0.00973 for the first, -0.135 for the second.

Going from TCGGAAAA to TGATGACA, the “PBM 8-mer E-score” value falls from -0.00542 to -0.0297.

First: GCCCGCTA
Second: CGAATTAC
The “PBM 8-mer E-score” value of the first is lower: -0.28 for the first, 0.126 for the second.

Going from ACTTATGC to GAGATATC, the “PBM 8-mer E-score” value rises from 0.124 to 0.163.

Going from CGCCGTAG to GGCGAACC, the “PBM 8-mer E-score” value falls from -0.186 to -0.221.

First: CAAAACTC
Second: TCCCGCGA
The “PBM 8-mer E-score” value of the first is higher: -0.00476 for the first, -0.0244 for the second.

Compared with CACAAATA, GCGTCGCA is lower in “PBM 8-mer E-score” value: 0.338 for the first, -0.0355 for the second.

First: ACCAATAC
Second: TTAACAAA
The “PBM 8-mer E-score” value of the first is lower: 0.171 for the first, 0.34 for the second.

Compared with CGATACAA, AGAGAGCA is lower in “PBM 8-mer E-score” value: 0.0538 for the first, -0.185 for the second.

Going from ACAATACA to AGGGTGCG, the “PBM 8-mer E-score” value falls from 0.262 to -0.239.

Going from CGGGTCCA to CCGCGCGG, the “PBM 8-mer E-score” value falls from -0.221 to -0.227.

First: CCACCAGC
Second: GACGCCGA
The “PBM 8-mer E-score” value of the first is lower: -0.25 for the first, -0.204 for the second.

First: GCCGGGAC
Second: AAGGCCAC
The “PBM 8-mer E-score” value of the first is lower: -0.263 for the first, -0.103 for the second.

Going from AGGAGCGG to ATGCCACA, the “PBM 8-mer E-score” value rises from -0.155 to 0.04.

First: GGAGGTAC
Second: GAAACTGC
The “PBM 8-mer E-score” value of the first is lower: -0.23 for the first, -0.0519 for the second.

Going from CGAGTTCC to TAATCATA, the “PBM 8-mer E-score” value rises from -0.114 to 0.325.

Compared with CCCCATTC, AAGTCTTC is higher in “PBM 8-mer E-score” value: -0.16 for the first, 0.049 for the second.

Going from AAATACGC to ATTCAGCG, the “PBM 8-mer E-score” value falls from 0.156 to -0.131.

Going from AGACCCTA to CAAGCCAC, the “PBM 8-mer E-score” value rises from -0.308 to -0.22.

Going from ATACGAAA to CCGCCCGA, the “PBM 8-mer E-score” value falls from 0.148 to -0.197.

Going from AAATCCGC to CGGCACAA, the “PBM 8-mer E-score” value falls from 0.0391 to 0.0115.

Going from AGATGTTC to ACAATTCG, the “PBM 8-mer E-score” value rises from 0.0116 to 0.163.

Compared with GACCCACA, ACTAATAC is higher in “PBM 8-mer E-score” value: -0.116 for the first, 0.247 for the second.
